These are yes or no findings as the source states them, for the method shown. In cells and extracts the contact can be indirect. Some binding calls cover weakened binding; strength is not graded here. For some of these results: Where a sequence is shown, tags or fusion partners need not be part of it.
Key:
[1] = biological target: T1, GST-NFATc1 (full-length) (human) (UniProt O95644); test: pull-down; GST-pulldown from lysates of HEK293T cells co-expressing a GST-tagged and a VF-tagged protein, then immunoblotting; in some panels cells treated with TGF-β (10 ng/ml, 4 h), SB431542 (10 μM, 1 h), ionomycin 10 μM + PMA 1 μM (4 h) or CsA (10 μM, 1 h)
T1 sequence: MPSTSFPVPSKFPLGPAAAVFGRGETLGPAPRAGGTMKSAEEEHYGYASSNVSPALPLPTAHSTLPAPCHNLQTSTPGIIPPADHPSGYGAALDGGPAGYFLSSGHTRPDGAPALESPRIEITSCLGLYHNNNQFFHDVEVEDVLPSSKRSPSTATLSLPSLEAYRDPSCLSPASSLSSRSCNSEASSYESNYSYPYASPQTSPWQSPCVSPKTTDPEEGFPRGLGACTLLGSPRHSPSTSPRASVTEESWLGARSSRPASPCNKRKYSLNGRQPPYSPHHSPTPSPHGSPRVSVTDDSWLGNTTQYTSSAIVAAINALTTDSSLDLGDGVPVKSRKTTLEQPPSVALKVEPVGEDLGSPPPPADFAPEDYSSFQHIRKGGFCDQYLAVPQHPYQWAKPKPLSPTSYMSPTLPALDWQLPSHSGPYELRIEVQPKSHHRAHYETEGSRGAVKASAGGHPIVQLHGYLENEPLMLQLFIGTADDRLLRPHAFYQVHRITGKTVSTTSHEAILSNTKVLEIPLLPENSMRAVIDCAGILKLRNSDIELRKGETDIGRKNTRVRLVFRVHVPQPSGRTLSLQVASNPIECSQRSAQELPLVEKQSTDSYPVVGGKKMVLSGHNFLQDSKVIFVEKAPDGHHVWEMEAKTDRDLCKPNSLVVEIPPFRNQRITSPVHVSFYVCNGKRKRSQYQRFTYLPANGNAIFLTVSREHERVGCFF

Protein sequences, listed by entry. Tags and fused reporters are not part of them. Lines headed by an entry give the natural chain unless they say otherwise; changes in a name come on top. Chains listed by the source or under a name are the forms on record and can include a tag or linker. Residues count along the entry.
UniProt Q13485: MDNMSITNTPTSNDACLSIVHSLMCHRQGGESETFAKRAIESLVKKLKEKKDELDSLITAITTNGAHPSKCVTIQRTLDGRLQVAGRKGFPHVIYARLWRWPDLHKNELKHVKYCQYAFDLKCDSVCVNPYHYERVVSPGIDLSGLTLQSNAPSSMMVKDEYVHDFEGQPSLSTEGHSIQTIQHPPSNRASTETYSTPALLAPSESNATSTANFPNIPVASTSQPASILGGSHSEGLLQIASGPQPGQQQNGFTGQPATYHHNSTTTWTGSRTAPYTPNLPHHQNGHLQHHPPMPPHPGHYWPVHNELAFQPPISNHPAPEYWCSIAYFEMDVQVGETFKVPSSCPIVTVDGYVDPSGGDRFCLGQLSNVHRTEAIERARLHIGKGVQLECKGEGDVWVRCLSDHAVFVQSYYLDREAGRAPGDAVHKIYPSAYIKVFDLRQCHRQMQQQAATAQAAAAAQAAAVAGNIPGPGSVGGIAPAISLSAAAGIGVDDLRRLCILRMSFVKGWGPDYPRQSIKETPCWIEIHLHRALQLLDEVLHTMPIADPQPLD
GST-tagged SMAD4 MH2 domain truncation (319-552 amino acids): residues 319-552 of Q13485
UniProt P84022: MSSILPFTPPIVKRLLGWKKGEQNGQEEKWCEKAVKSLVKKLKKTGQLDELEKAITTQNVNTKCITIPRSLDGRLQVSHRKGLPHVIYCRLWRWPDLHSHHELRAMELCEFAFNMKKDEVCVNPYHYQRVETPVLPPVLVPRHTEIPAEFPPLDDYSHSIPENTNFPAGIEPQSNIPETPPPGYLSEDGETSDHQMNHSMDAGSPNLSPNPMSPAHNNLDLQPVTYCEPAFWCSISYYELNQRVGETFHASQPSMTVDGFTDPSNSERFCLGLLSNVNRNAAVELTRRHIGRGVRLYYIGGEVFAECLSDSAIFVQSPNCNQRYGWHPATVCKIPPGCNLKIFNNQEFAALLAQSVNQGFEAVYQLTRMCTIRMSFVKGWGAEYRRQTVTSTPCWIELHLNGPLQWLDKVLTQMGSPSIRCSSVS

[2] = biological target: GST-tagged SMAD4 MH2 domain truncation (319-552 amino acids) (human) (UniProt Q13485); test: FRET or BRET; TR-FRET of single pairs: GST-SMAD4 (WT, domain truncations, truncation mutants) with VF-tagged partners; signal as fold change over empty vector controls
[3] = biological target: T2, GST-tagged NFATc1 T2, truncation of DBD and CD (426-716 amino acids) (human) (UniProt O95644); test: pull-down; GST-pulldown from lysates of HEK293T cells co-expressing a GST-tagged and a VF-tagged protein, then immunoblotting; in some panels cells treated with TGF-β (10 ng/ml, 4 h), SB431542 (10 μM, 1 h), ionomycin 10 μM + PMA 1 μM (4 h) or CsA (10 μM, 1 h)
T2 sequence: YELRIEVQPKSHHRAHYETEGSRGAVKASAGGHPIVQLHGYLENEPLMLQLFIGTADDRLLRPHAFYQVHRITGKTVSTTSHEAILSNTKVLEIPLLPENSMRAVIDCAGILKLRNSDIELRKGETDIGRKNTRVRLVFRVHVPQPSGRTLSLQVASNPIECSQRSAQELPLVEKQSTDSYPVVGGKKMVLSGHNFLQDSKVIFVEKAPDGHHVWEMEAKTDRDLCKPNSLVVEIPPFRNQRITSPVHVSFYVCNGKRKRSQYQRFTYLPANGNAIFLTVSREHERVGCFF

[4] = biological target: T3, GST-tagged NFATc1 T1, truncation of AD and RD (1-425 amino acids) (human) (UniProt O95644); test: as above
T3 sequence: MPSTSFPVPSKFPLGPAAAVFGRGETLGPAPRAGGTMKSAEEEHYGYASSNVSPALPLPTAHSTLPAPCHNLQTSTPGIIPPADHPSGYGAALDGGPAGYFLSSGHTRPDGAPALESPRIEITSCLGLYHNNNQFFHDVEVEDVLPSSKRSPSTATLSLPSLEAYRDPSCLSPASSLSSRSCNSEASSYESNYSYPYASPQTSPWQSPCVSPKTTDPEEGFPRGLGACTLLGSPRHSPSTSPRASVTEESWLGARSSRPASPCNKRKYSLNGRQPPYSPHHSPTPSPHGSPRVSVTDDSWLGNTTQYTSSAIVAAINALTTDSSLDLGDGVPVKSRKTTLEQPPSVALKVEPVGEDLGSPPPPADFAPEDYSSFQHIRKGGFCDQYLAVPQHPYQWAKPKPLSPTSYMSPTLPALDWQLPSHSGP

Substance	binding [1]	binding [2]	binding [3]	binding [4]
VF-tagged SMAD4 linker region truncation (143-318 amino acids) (from UniProt Q13485 143-318) (domain or fragment)	no binding	–	–	–
VF-tagged SMAD3 (from UniProt P84022 1-425)	–	binds	–	–
VF-tagged SMAD4 MH1 domain truncation (1-142 amino acids) (from UniProt Q13485 1-142) (domain or fragment)	binds	–	–	–

Continued, values first:

binding [1]	binding [2]	binding [3]	binding [4]	Substance
no binding	–	–	–	VF-tagged SMAD4 MH2 domain truncation (319-552 amino acids) (from UniProt Q13485 319-552) (domain or fragment)
binds	–	binds	no binding	VF-SMAD4 (Venus-Flag-tagged SMAD4, full-length) (from UniProt Q13485 1-552)

Reference: publication PMC12831459
